According to PubChem BioAssay AID624418 (National Center for Advancing Translational Sciences (NCATS), 2012):
Screen size: about 410,000 compounds; about 530 (0.13%) were called active. Inconclusive means that the source gave no clear call. Such entries were picked first, then a sample of the others. Calls come from the whole dose curve; as a rule, active = well fitted inhibition curve with a large enough effect; inconclusive = small, poorly fitted or top-dose-only effect, or another doubt; inactive = no such curve, though single readings can be large or run the other way. Potencies beside an inconclusive call are fits to weak or partial responses and may not hold up.

assay: qHTS of GLP-1 Receptor Inverse Agonists: Cytotox Screen; settings: HEK293 cAMP-luciferase reporter cells, luminescence, 24 h; activity change, negative = inhibition: at 38.3 µM (top of the series) unless noted
Outline: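 Step one: seed cells (200 cells/uL, DMEM with 10% Nu serum, 1% pen-strep). Step two: 12-hour incubation at 37 deg C. Step three: pin 23 nL compound, incubate 24 hr. Step four: add luciferase reagent, read luminescence 12 min later.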
% is set by controls: 0 for no effect and ±100 for the full control effect; potency is the fitted concentration of half-maximal effect.

Q: With `COCCN=c1scc(-c2ccco2)n1/N=C/c1ccc(O)c(O)c1O` as the compound, how does the Potency read?
A: inconclusive: 28.2 µM [inhibitor, single point]

Q: Which Potency does the source give for `COc1ccc(Nc2c3c(nc4ccc(NC(=O)/C=C/c5cc(OC)c(OC)c(OC)c5)cc24)CCCC3)cc1OC` here?
A: inconclusive: 8.91 µM [inhibitor, partial curve, poor fit]

Q: With `CCOC(=O)C1(CC2CCCCO2)CCN(Cc2nccn2-c2ccc(OC)cc2)CC1` (configuration not stated) as the compound, how does the Potency read?
A: inconclusive: 7.94 µM [inhibitor, partial curve, poor fit]

Q: Which Potency does the source give for `Cc1ccc(C(=O)COC(=O)CSc2cccc3cccnc23)c(C)c1` here?
A: inconclusive: 12.6 µM [inhibitor, single point]

Q: With `CCOC(=O)c1ccc(NC(=S)NCCC2=CCCCC2)cc1` as the compound, how does the Potency read?
A: inconclusive: 20 µM [inhibitor, single point]

Q: Which activity change, negative = inhibition does the source give for `CCCCN(c1ccccc1)S(=O)(=O)N(C)C` here?
A: inactive: -5.54% [at 7.66 µM]

Q: With `Cc1cc(N2C(=O)C=CC2=O)c([N+](=O)[O-])cc1C` as the compound, how does the Potency read?
A: inconclusive: 11.2 µM [inhibitor, single point]

Q: For `O=c1c2ccccc2sn1-c1ccccc1F`, which Potency is on record?
A: active: 10 µM

Q: For `Cn1c(=O)n(C)c2cc(NC(=O)CSc3ccccc3)ccc21`, which Potency is on record?
A: inconclusive: 11.2 µM [inhibitor, partial curve, poor fit]

Q: With `CC1C=CCC2C(=O)N(c3cccc(C(=O)Nc4ccc(Br)cc4)c3)C(=O)C12` (configuration not stated) as the compound, how does the Potency read?
A: inconclusive: 10 µM [inhibitor, single point]

Q: With `CCOc1cc(C)c(-c2onc(C(F)(F)F)c2-c2csc(C)n2)c(O)c1` as the compound, how does the Potency read?
A: inconclusive: 10 µM [inhibitor, single point]

Q: With `CN(C)C(=O)[C@@H]1C[C@H]1[C@@H](NC(=O)OCc1ccccc1)c1ccccc1` as the compound, how does the Potency read?
A: inconclusive: 8.91 µM [inhibitor, single point]

Q: With `C1=C(CCNc2ncnc3nc[nH]c23)CCCC1` as the compound, how does the Potency read?
A: inconclusive: 28.2 µM [inhibitor, single point]

Q: With `O=C(CSC1CC(=O)N(CC(c2ccccc2)c2ccccc2)C1=O)Nc1ccc(Cl)cc1` (configuration not stated) as the compound, how does the Potency read?
A: inconclusive: 28.2 µM [inhibitor, single point]

Q: For `CC(=O)Nc1ccc(N(CC(O)Cn2c3ccccc3c3ccccc32)S(=O)(=O)c2ccc(C)cc2)cc1` (configuration not stated), which Potency is on record?
A: inconclusive: 28.2 µM [inhibitor, single point]

Q: For `O=C(COC(=O)CCc1ccccc1)Nc1ccccc1OC(F)F`, which Potency is on record?
A: inconclusive: 20 µM [inhibitor, single point]

Q: For `Cc1cc(C(=O)N2CCCC(N3CCN(c4ccccc4C)CC3)C2)no1` (configuration not stated), which Potency is on record?
A: inactive
